Measured values reported in article PMC6726247.
Where two headings read alike, the source gives them in different places. Results are given in words; binding and its absence hold for the method and conditions named. Binding seen in cells or lysates may run through a third protein. Some binding calls cover weakened binding; strength is not graded here. For some of these results: Sequences can lack the tags named with a protein.

The chains behind the UniProt entries cited, without tags or fusion partners.
UniProt Q9CWH6: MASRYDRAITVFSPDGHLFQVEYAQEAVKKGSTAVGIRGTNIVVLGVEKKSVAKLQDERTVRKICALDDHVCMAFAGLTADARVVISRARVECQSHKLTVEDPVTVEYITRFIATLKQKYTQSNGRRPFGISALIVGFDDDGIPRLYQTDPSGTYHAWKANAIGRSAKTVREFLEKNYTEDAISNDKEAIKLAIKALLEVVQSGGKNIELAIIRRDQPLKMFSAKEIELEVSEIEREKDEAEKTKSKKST
UniProt P11440: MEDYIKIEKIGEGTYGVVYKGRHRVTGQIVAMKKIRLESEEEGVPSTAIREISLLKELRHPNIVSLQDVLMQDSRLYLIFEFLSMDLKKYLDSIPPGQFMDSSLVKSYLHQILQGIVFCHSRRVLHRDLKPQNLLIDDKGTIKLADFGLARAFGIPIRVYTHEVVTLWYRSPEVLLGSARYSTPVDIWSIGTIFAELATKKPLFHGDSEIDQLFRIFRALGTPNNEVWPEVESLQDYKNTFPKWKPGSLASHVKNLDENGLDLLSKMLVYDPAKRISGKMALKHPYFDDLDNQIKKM

T1: Flag-SYCE2 (mouse) (UniProt Q505B8)
T1 sequence: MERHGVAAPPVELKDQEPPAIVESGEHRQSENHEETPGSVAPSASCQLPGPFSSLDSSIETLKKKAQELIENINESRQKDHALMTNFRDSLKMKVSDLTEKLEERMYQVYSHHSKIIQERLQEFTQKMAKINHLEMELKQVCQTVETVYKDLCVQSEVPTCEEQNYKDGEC


What was measured:
Assay in all cases: co-IP; HEK293T cells transiently co-transfected with Flag- and GFP-tagged proteins; whole cell extracts precipitated with anti-Flag, anti-EGFP or control IgGs on protein G-Sepharose o/n; western blot
Flag-PSMA8 (mouse) [1] = biological target: Flag-PSMA8 (mouse) (UniProt Q9CWH6)
GFP-CDK1 (mouse) = GFP-CDK1 (mouse) (UniProt P11440)
Flag-PSMA8 (mouse) [2] = biological target: Flag-PSMA8 (mouse) (UniProt Q9CWH6); remark: listed apart in the source
Flag-SYCE2 (mouse) = biological target: T1, Flag-SYCE2 (mouse)

| Molecule | binding (Flag-PSMA8 (mouse) [2]) | other results |
| --- | --- | --- |
| GFP-CDK1 (from UniProt P11440 1-297) |  | binding (Flag-PSMA8 (mouse) [1]): binds |
| Flag-PSMA8 (from UniProt Q9CWH6 1-250) |  | binding (GFP-CDK1 (mouse)): binds |
| GFP-SYCP1 (protein, UniProt Q62209 1-993) MEKQKPFTLFVPPRLSSSQVSAVKPQTAGGDSNYFKTANKCTEGDFGVPFTMSSRENIDKDPAFQKLSILPMLEQVANSGSCHYQEGVNDSDFENSEPMSRLYSKLYKEAEKIKKWKVSIESELKQKENKLQENRKIIEAQRKAIQELQFENEKVSLKLEEEIQENKDLIKENNATIHWCNLLKETCARSAEKTNKYEYEREETRQVYVDLNSNIEKMILAFEELRVQAENARLEMHFKLKEDHEKIQHLEEEYQKEVNNKENQVSELLIQSAEKENKMKDLTFLLEESRDKANQLEEKTKLQDENLKELSEKKDHLTSELEDIKMSMQRSMSTQKALEEDLQIATKTISQLTEVKEAQMEELNKAKTTHSFVVTELKATTCTLEELLRTEQQRLEKNEDQLKLITVELQKKSNELEEMTKFKNNKEVELEELKNILAEDQKLLDEKKQVEKLAEELQEKEQELTFLLETREKEVHDLQEQVTVTKTSEQHYLKQVEEMKTELEKEKLKNTELTASCDMLLLENKKFVQEASDMALELKKHQEDIINCKKQEERLLKQIENLEEKEMHLRDELESVRKEFIQQGDEVKCKLDKSEENARSIECEVLKKEKQMKILESKCNNLKKQVENKSKNIEELHQENKTLKKKSSAEIKQLNAYEIKVSKLELELESTKQRFEEMTNNYQKEIENKKISEGKLLGEVEKAKATVDEAVKLQKEIDLRCQHKIAEMVALMEKHKHQYDKIVEERDSELGLYKNREQEQSSAKIALETELSNIRNELVSLKKQLEIEKEEKEKLKMAKENTAILKDKKDKKIQASLLESPEATSWKFDSKTTPSQNISRLSSSMDSGKSKDNRDNLRASAKSILPTTVTKEYTVKTPTKKSIYQRENKYIPTGGSNKKRKTAFEFDVNSDSSETADLLSLVSEEDVSNRLYDNNPPDSHLLVKTPKQTPLSLSTPASFMKFGSLKKMREDRWTTIAKIDRKRRLKEAEKLFS | binds |  |
| GFP-TRIP13 (protein, UniProt Q3UA06 1-432) MDEAVGDLKQALPCVAESPAVHVEVLQRSGSTAKKEDIKSSVYRLLNRHNIVFGDYVWTEFDDPFLSRNVQSVSIVDTELKAKDPQPIDLSACTIALHIFQLNEEGPSSENLDEETENIIAASHWVLPAAEFHGLWDSLVYDVEVKSHLLDYVMTTVLFSDKNVDSNLITWNRVVLLHGPPGTGKTSLCKALAQKLTIRLSSRYRYGQLIEINSHSLFSKWFSESGKLVTKMFQKIQDLIDDKEALVFVLIDEVESLTAARNACRAGAEPSDAIRVVNAVLTQIDQIKRHSNVVILTTSNITEKIDVAFVDRADIKQYIGPPSAAAIFKIYLSCLEELMKCQIIYPRQQLLTLRELEMIGFIENNVSKLSLLLSEISRKSEGLSGRVLRKLPFLAHALYIQAPSVTIEGFLQALSLAVDKQFEEKKKLSAYV | binds |  |
| GFP-SIX6OS1 (protein, UniProt Q9CTN5 1-574) MNDNLFVSLDRLLLEFVFQYEQDISIKEDTIQRINKCLESIKENKANVSKLREAINKVDEDIAFHYKHSKEIKDSCSNWKPTCDVFHKHEDYIKDQLTAYQETNEKDKKMYHDYICQYEDVLKQYQLKYSETRFSCKYYEKKKEHEEIKNRVLACTEQLQLNETILMKFLVPAPFPSLTKWTLYVVNLRYRTQDILKRANNFTKRSFELEKEADDMEIEINSLNKMARLFESKTFSEALDEKNKNTEKRKEFEERIFEKDEQVSNRSSQNSQLLLPCESQKFVRNMNSSEARVTDKKEESSANQSKFVRSDVRQKENNPQIFNDSGMDSNSKSSHIPAVKSSQGFMQFRLNQPNYNQRIEKEHIDAECGDKETVRQVRESKCSTQALYIEHFGKSIENNSVEEERDENFPQTPETPSFLRTPEALKTPESMEKMQFPKSPFFEITKNATSEGHKQKDSPGFSFLMSYTSRSPGLNLFDSSVSDSEISSDQFNEHYSAVNLNPSSSQQGIGNLFGKSEGEDAFTFSFSSDSSHTFGAGKDDFSFPFSFEQDPSTMTSSSSKDFSSSQNKTQFMFF | binds |  |
| GFP-SYCE3 (protein, UniProt B5KM66 1-88) MADSDPGERSYDNMLKMLSDLNKDLEKLLEEMEKISVQATWMAYDMVVMRTNPTLAESMRRLEDAFLNCKEEMEKNWQELLTETKRKQ | binds |  |
| GFP-TEX12 (protein, UniProt Q9CR81 1-123) MMANHLVKPDSRNCKRARELEPQVSDSPQVSSLGKSESSLSEASGLFYKEEALEKDLSDMSKEINLMLSTYAKILSERAAVDASYIDEIDGLFKEANIIENFLVQKREFLKQRFTVITNTLHK | no binding | binding (Flag-SYCE2 (mouse)): binds |
| GFP-SYCE1 (protein, UniProt Q9D495 1-329) MATRPQPLGMEPEGSADLLHGPEGARGQYGSTQKIEDLMDMVKKLQKVGSLEPRIEVLINRINEVQQAKKKASEELGEAQTVWDNLQKELDLLREEKVRLKDILNRKEETLRIMQLHCQEKESEAQRKHSMLQECKERISFLNSQIDKEKAKLRKLRLDFEEHLETLMSQHKDTLEFHKPEHLTKEMCVLDSSKEQLLKEEKLMKVKLEDVRQRLCALGGPEGSSSLIEGLFLRSHEAAAAMQMFKDENKKAEEFLEAAAQQHEQLQQRCHQLQQKRQRLKEELEKHGVQILAHSTQNEEDSSWRMASPKPVEVHEETAQDQERPSSRT | no binding |  |
| GFP-SYCE2 (protein, UniProt Q505B8 1-171) MERHGVAAPPVELKDQEPPAIVESGEHRQSENHEETPGSVAPSASCQLPGPFSSLDSSIETLKKKAQELIENINESRQKDHALMTNFRDSLKMKVSDLTEKLEERMYQVYSHHSKIIQERLQEFTQKMAKINHLEMELKQVCQTVETVYKDLCVQSEVPTCEEQNYKDGEC | no binding |  |
